From patent publication US20260022143A1, “Cyclic Peptide Inhibitors of IL-23” (JANSSEN PHARMACEUTICA NV, priority 2022, published 2026)

biological target: T1, IL-23R (Homo sapiens, UniProt Q5VWK5); experiment: IL23R Reporter Assay; format: cell-based; settings: IL23R Reporter Assay (micromolar), HEK293 cells containing IL-23R, IL-12RP1 and STAT-inducible firefly luciferase reporter; 10 ng/mL IL-23 (EC90); 5 h at 37° C.
T1 construct: host or cells: HEK293
T1 sequence (Q5VWK5 24-629): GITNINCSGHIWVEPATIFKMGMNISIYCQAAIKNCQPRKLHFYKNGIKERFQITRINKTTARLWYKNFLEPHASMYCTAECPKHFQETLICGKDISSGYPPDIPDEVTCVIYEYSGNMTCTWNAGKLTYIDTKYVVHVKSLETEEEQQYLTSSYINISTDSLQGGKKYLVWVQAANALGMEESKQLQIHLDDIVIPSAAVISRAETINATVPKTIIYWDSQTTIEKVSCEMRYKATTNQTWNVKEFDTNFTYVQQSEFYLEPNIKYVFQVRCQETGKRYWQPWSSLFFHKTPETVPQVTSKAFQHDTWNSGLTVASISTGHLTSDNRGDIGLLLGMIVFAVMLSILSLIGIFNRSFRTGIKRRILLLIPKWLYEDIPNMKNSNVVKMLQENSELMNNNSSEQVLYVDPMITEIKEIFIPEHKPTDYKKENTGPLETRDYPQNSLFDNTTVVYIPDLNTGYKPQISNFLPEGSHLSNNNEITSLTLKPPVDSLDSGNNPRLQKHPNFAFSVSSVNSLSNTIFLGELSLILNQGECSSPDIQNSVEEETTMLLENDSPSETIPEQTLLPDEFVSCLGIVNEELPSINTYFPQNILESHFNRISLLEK

Row | IC50 | Structure (SMILES)
1 | 0.089 µM | CC(=O)NCCCC[C@@H]1NC(=O)[C@H](Cc2c[nH]c3c(C)cccc23)NC(=O)[C@H]([C@@H](C)O)NC(=O)[C@H](CC(N)=O)NC(=O)[C@@H](NC(C)=O)C(C)(C)SSC(C)(C)[C@@H](C(=O)N[C@@H](Cc2ccc(OCCN)cc2)C(=O)N[C@@H](Cc2ccc3ccccc3c2)C(=O)N[C@@](C)(CCCCN)C(=O)N[C@@H](CCCCNC(C)=O)C(=O)N[C@@H](CC(N)=O)C(=O)N[C@@H](Cc2c[nH]cn2)C(=O)N(C)[C@H](Cc2ccc(O)cc2)C(N)=O)NC1=O [compound 8, MeCO-Pen(3)-N-T-7MeW-K(Ac)-Pen(3)-AEF-2Nal-aMeK-K(Ac)-N-H-NMeDTyr-CONH2]
2 | 0.13 µM | CC(=O)NCCCC[C@H](NC(=O)[C@](C)(CCCCN)NC(=O)[C@H](Cc1ccc2ccccc2c1)NC(=O)[C@H](Cc1ccc(OCCN)cc1)NC(=O)[C@H]1NC(=O)[C@H](Cc2ccc(O)cc2)NC(=O)[C@H](Cc2c[nH]c3c(C)cccc23)NC(=O)[C@H]([C@@H](C)O)NC(=O)[C@H](CC(N)=O)NC(=O)[C@@H](NC(C)=O)C(C)(C)SSC1(C)C)C(=O)N[C@@H](CC(N)=O)C(=O)N[C@H](CCCCN)C(=O)N(C)[C@H](Cc1ccc(O)cc1)C(N)=O [compound 21, MeCO-Pen(3)-N-T-7MeW-Y-Pen(3)-AEF-2Nal-aMeK-K(Ac)-N-k-NMeDTyr-CONH2]
3 | 0.29 µM | CC(=O)N[C@H](CCCNC(=N)N)C(=O)N[C@@H]1C(=O)N[C@@H](CCC(N)=O)C(=O)N[C@@H]([C@@H](C)O)C(=O)N[C@@H](Cc2c[nH]c3ccccc23)C(=O)N[C@@H](CCC(N)=O)C(=O)N[C@H](C(=O)N[C@@H](Cc2ccc(OCCN)cc2)C(=O)N[C@@H](Cc2ccc3ccccc3c2)C(=O)NC2(C(=O)N[C@@H](CCC(=O)O)C(=O)N[C@@H](CC(N)=O)C(=O)N[C@@H](CC(N)=O)C(=O)N(C)[C@H](Cc3ccc(O)cc3)C(N)=O)CCOCC2)C(C)(C)SSC1(C)C [compound 4, MeCO-r-Pen(3)-Q-T-W-Q-Pen(3)-AEF-2Nal-THP-E-N-N-NMe DTyr-CONH2]
4 | 0.053 µM | CC(=O)NCCCC[C@@H]1NC(=O)[C@H](Cc2c[nH]c3c(C)cccc23)NC(=O)[C@H]([C@@H](C)O)NC(=O)[C@H](CC(N)=O)NC(=O)[C@@H](NC(=O)[C@@H](CCCNC(=N)N)NC(C)=O)C(C)(C)SSC(C)(C)[C@@H](C(=O)N[C@@H](Cc2ccc(OCCN)cc2)C(=O)N[C@@H](Cc2ccc3ccccc3c2)C(=O)N[C@@](C)(CCCCN)C(=O)N[C@@H](CCC(=O)O)C(=O)N[C@@H](CC(N)=O)C(=O)N[C@@H](Cc2c[nH]cn2)C(=O)N(C)[C@H](Cc2ccc(O)cc2)C(N)=O)NC1=O [compound 9, MeCO-r-Pen(3)-N-T-7MeW-K(Ac)-Pen(3)-AEF-2Nal-aMeK-E-N-H-NMeDTyr-CONH2]
5 | 0.048 µM | CC(=O)NCCCC[C@H](NC(=O)[C@](C)(CC(C)C)NC(=O)[C@H](Cc1ccc2ccccc2c1)NC(=O)[C@H](Cc1ccc(OCCN)cc1)NC(=O)[C@H]1NC(=O)[C@H](CCCNC(N)=O)NC(=O)[C@H](Cc2c[nH]c3c(C)cccc23)NC(=O)[C@H]([C@@H](C)O)NC(=O)[C@H](CC(N)=O)NC(=O)[C@@H](NC(C)=O)C(C)(C)SSC1(C)C)C(=O)N[C@@H](CC(N)=O)C(=O)N[C@H](CCCCN)C(=O)N(C)[C@H](Cc1ccc(O)cc1)C(N)=O [compound 25, MeCO-Pen(3)-N-T-7MeW-Cit-Pen(3)-AEF-2Nal-aMeL-K(Ac)-N-k-NMeDTyr-CONH2]
6 | 0.11 µM | CC(=O)NCCCC[C@@H]1NC(=O)[C@H](Cc2c[nH]c3c(C)cccc23)NC(=O)[C@H]([C@@H](C)O)NC(=O)[C@H](CC(N)=O)NC(=O)[C@@H](NC(C)=O)C(C)(C)SSC(C)(C)[C@@H](C(=O)N[C@@H](Cc2ccc(OCCN)cc2)C(=O)N[C@@H](Cc2ccc3ccccc3c2)C(=O)N[C@@](C)(CCCCN)C(=O)N[C@@H](CCCCNC(C)=O)C(=O)N[C@@H](CC(N)=O)C(=O)N[C@H](CO)C(=O)N(C)[C@H](Cc2ccc(O)cc2)C(N)=O)NC1=O [compound 19, MeCO-Pen(3)-N-T-7MeW-K(Ac)-Pen(3)-AEF-2Nal-aMeK-K(Ac)-N-s-NMeDTyr-CONH2]
7 | 0.016 µM | CC(=O)NCCCC[C@@H]1NC(=O)[C@H](Cc2c[nH]c3c(C)cccc23)NC(=O)[C@H]([C@@H](C)O)NC(=O)[C@H](CC(N)=O)NC(=O)[C@@H](NC(C)=O)C(C)(C)SSC(C)(C)[C@@H](C(=O)N[C@@H](Cc2ccc(OCCN)cc2)C(=O)N[C@@H](Cc2ccc3ccccc3c2)C(=O)N[C@@](C)(CCCCN)C(=O)N[C@@H](CCCCNC(C)=O)C(=O)N[C@@H](CC(N)=O)C(=O)N[C@H](Cc2cccnc2)C(=O)N(C)[C@H](Cc2ccc(O)cc2)C(N)=O)NC1=O [compound 32, MeCO-Pen(3)-N-T-7MeW-K(Ac)-Pen(3)-AEF-2Nal-aMeK-K(ac)-N-3pya-NMeDTyr-CONH2]
8 | 0.11 µM | CC(=O)NCCCC[C@@H]1NC(=O)[C@H](Cc2c[nH]c3c(C)cccc23)NC(=O)[C@H]([C@@H](C)O)NC(=O)[C@H](CC(N)=O)NC(=O)[C@@H](NC(C)=O)C(C)(C)SSC(C)(C)[C@@H](C(=O)N[C@@H](Cc2ccc(OCCN)cc2)C(=O)N[C@@H](Cc2ccc3ccccc3c2)C(=O)N[C@@](C)(CCCCN)C(=O)N[C@@H](CCCCNC(C)=O)C(=O)N[C@@H](CC(N)=O)C(=O)N[C@H](Cc2c[nH]cn2)C(=O)N(C)[C@H](Cc2ccc(O)cc2)C(N)=O)NC1=O [compound 26, MeCO-Pen(3)-N-T-7MeW-K(Ac)-Pen(3)-AEF-2Nal-aMeK-K(Ac)-N-h-NMeDTyr-CONH2]
